Measurements as given in the supplement of paper PMC6135742.
Where a name gives a salt, the structure may show the parent alone. ± gives the standard deviation of the averaged measurements. Over roughly 2,600 compounds, “MBP+ mature oligodendrocyte number relative to DMSO vehicle control” has its median near -0.34; the highest 2% begin near 13. The list shows a part of the results.

system: jimpy (Plp1 jimpy) mouse iPSC-derived oligodendrocyte progenitor cells; test: MBP+ mature oligodendrocyte number relative to DMSO vehicle control (SDs above negative control mean); higher = more surviving jimpy oligodendrocytes (rescue); conditions: 10 µM; 3 days
Protocol: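 Primary phenotypic screen of >3,000 bioactive compounds (Selleck L1700 and Sigma LO1280 libraries) at a single dose of 10 µM. Compounds were added to jimpy (Plp1 mutant) mouse iPSC-derived OPCs at the start of thyroid hormone-induced oligodendrocyte differentiation, one well per compound in 384-well plates. After 3 days cells were stained for MBP, Sox10 and DAPI and imaged with an Operetta system. MBP+ oligodendrocyte number and total cell number were expressed as the number of SDs above the mean of the DMSO negative control on the same plate (n=16 control wells per plate). Hits were defined as >=4 SD for oligodendrocytes and >=2 SD for total cells.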

| SMILES | MBP+ mature oligodendrocyte number |
| --- | --- |
| COc1ccc(-c2nc3cc(C4=NNC(=O)CC4C)ccc3[nH]2)cc1 (centres undefined) [Pimobendan] | 10.6 |
| NCC(=O)Nc1ccc(-n2nc(C(F)(F)F)cc2-c2ccc3c(ccc4ccccc43)c2)cc1 | < -6.7 |
| COc1ccc(-c2cnc3c(-c4cccc5ncccc45)cnn3c2)cc1 | -5 |
| NS(=O)(=O)c1cc2c(cc1Cl)N=CNS2(=O)=O [Chlorothiazide] | 1.14 ± 0.11 |
| CNS(=O)(=O)Cc1ccc2[nH]cc(CCN(C)C)c2c1 [Sumatriptan Succinate] | 0.284 |
| O=c1c(O)c(-c2ccc(O)c(O)c2)oc2cc(O)ccc12 [Fisetin] | -1.95 |
| O=C(COc1ccc(Cl)cc1)NC1CCC(NC(=O)COc2ccc(Cl)cc2)CC1 (centres undefined) | 3.27 |
| COc1cc2ncnc(Oc3cccc(NC(=O)Nc4cc(C(C)(C)C(F)(F)F)on4)c3)c2cc1OC | 6.63 |
| CN[C@H](CC(C)C)C(=O)N[C@H]1C(=O)N[C@@H](CC(N)=O)C(=O)N[C@H]2C(=O)N[C@H]3C(=O)N[C@H](C(=O)N[C@H](C(=O)O)c4cc(O)cc(O)c4-c4cc3ccc4O)[C@H](O)c3ccc(c(Cl)c3)Oc3cc2cc(c3O[C@@H]2O[C@H](CO)[C@@H](O)[C@H](O)[C@H]2O[C@H]2C[C@](C)(N)[C@H](O)[C@H](C)O2)Oc2ccc(cc2Cl)[C@H]1O [Vancomycin hydrochloride from Streptomyces orientalis] | 0.0744 |
| NC(=O)c1ncn([C@@H]2O[C@H](CO)[C@@H](O)[C@H]2O)n1 [Ribavirin] | 0.766 ± 1.4 |
| CCOC(=O)[C@H](CCc1ccccc1)N[C@@H](C)C(=O)N1[C@H](C(=O)O)C[C@@H]2CCC[C@@H]21 [Ramipril] | 0.883 |
| CNC(=O)c1ccc(-c2cnc3ncc(Cc4ccc5ncccc5c4)n3n2)cc1F | -5.21 |
| Cc1ccc(S(=O)(=O)n2c(N)nc3ccccc32)cc1 [ML130 (Nodinitib-1)] | -0.213 |
| Cn1c(=O)c2[nH]c(C3CCCC3)nc2n(C)c1=O [8-Cyclopentyl-1,3-dimethylxanthine] | 0.607 |
| CC(C)COCC(CN(Cc1ccccc1)c1ccccc1)N1CCCC1 (centres undefined) [Bepridil hydrochloride] | -0.000818 |
| O=C(O)c1cc(=O)c2ccccc2o1 [Chromocarb] | 2.52 |
| NS(=O)(=O)c1cc(C(=O)O)c(NCc2ccco2)cc1Cl [Furosemide] | 1.12 ± 0.43 |
| NC(=S)c1ccc[n+]([C@@H]2O[C@@H](COP(=O)([O-])OP(=O)(O)OC[C@H]3O[C@@H](n4cnc5c(N)ncnc54)C(OP(=O)(O)O)[C@H]3O)C(O)C2O)c1 (some centres undefined) [Thio-NADP sodium] | -0.461 |
| CCOc1cc([C@@H](CS(C)(=O)=O)N2C(=O)c3cccc(NC(C)=O)c3C2=O)ccc1OC | 1.77 |
| Cc1cc(C2CCCCC2)n(O)c(=O)c1 [Ciclopirox ethanolamine] | -5.93 |
| Cc1cc(C2CCCCC2)n(O)c(=O)c1 [Ciclopirox] | -4.7 |
| CC1=C(C(=O)OC(C)C)C(c2cccc([N+](=O)[O-])c2)C(C(=O)OC2CN(C(c3ccccc3)c3ccccc3)C2)=C(N)N1 (centres undefined) [Azelnidipine] | < -6.01 |

| SMILES | MBP+ mature oligodendrocyte number |
| --- | --- |
| COc1cc(C(=O)NS(=O)(=O)c2ccccc2C)ccc1Cc1cn(C)c2ccc(NC(=O)OC3CCCC3)cc12 [Zafirlukast] | 2.23 |
| CCc1cncnc1N1CCN(Cc2nc3ccc(C(F)(F)F)cc3[nH]2)CC1 | 3.81 |
| COc1cccc(OC)c1OCCNCC1COc2ccccc2O1 (centres undefined) [WB-4101 hydrochloride] | 5.89 |
| Nc1ccccc1NC(=O)c1ccc(CNC(=O)OCc2cccnc2)cc1 [Entinostat (MS-275)] | < -6.7 |
| O=C1NCN(c2ccccc2)C12CCN(CCCC(c1ccc(F)cc1)c1ccc(F)cc1)CC2 [Fluspirilene] | -4.41 |
| CCCCOc1c(C(=O)c2c(F)cc(C)cc2F)c[nH]c2nncc1-2 | -3.08 |
| CN(C)C(=O)COC(=O)Cc1ccc(OC(=O)c2ccc(NC(=N)N)cc2)cc1 [Camostat Mesilate] | 1.93 |
| NC(N)=N/N=C/c1ccccc1Cl [Sephin-1] | 1.29 |
| N=C(N)NC(=O)c1nc(Cl)c(N)nc1N [Amiloride HCl] | 0.703 |
| N=C(N)NC(=O)c1nc(Cl)c(N)nc1N [Amiloride hydrochloride] | -0.708 |
| CC(C)NCC(O)c1ccc(NS(C)(=O)=O)cc1 (racemic) [Sotalol] | -0.78 |
| CC(C)NCC(O)c1ccc(NS(C)(=O)=O)cc1 (racemic) [(±)-Sotalol hydrochloride] | -0.0327 |
| O=[N+]([O-])c1ccc2c(c1)S(=O)(=O)C=C2 [Stattic] | -5.1 ± 1.8 |
| CC[C@H]1OC(=O)[C@H](C)[C@@H](O[C@H]2C[C@@](C)(OC)[C@@H](O)[C@H](C)O2)[C@H](C)[C@@H](O[C@@H]2O[C@H](C)C[C@H](N(C)C)[C@H]2O)[C@](C)(OC)C[C@@H](C)C(=O)[C@H](C)[C@@H](O)[C@]1(C)O [Clarithromycin] | -1.12 |
| Nc1ccc(-c2ccc3ccccc3n2)cc1 [BF-170 hydrochloride] | 0.146 |
| CC(=O)SCC[N+](C)(C)C [Acetylthiocholine chloride] | -0.394 |
| NC(=O)Cc1cccc(C(=O)c2ccccc2)c1N [Nepafenac] | 3.6 |
| C[C@H]1COC2=C1C(=O)C(=O)c1c2ccc2c1CCCC2(C)C [Cryptotanshinone] | 0.787 |
| CN(C)CC[C@H](CSc1ccccc1)Nc1ccc(S(=O)(=O)NC(=O)c2ccc(N3CCN(Cc4ccccc4-c4ccc(Cl)cc4)CC3)cc2)cc1[N+](=O)[O-] | -6.52 |
| O=C(Nc1nc2ccccc2n1CCN1CCOCC1)c1cccc([N+](=O)[O-])c1 [IRAK-1/4 Inhibitor I] | -0.0327 |
| CCCCC1=NC2(CCCC2)C(=O)N1Cc1ccc(-c2ccccc2-c2nnn[nH]2)cc1 [Irbesartan] | 1.42 |
| C=C1C[C@@]23CC[C@H]4[C@@](C)(CCC[C@@]4(C)C(=O)O[C@@H]4O[C@H](CO)[C@@H](O)[C@H](O)[C@H]4O)[C@@H]2CC[C@]1(O[C@@H]1O[C@H](CO)[C@@H](O)[C@H](O)[C@H]1O[C@@H]1O[C@H](CO)[C@@H](O)[C@H](O)[C@H]1O)C3 [Stevioside] | -0.715 |
